Assay results published in the supplement of paper PMC3334620.
Over roughly 33,000 sequences, “E-score (-0.5 to 0.5)” has its median near -0.056; the highest 2% begin near 0.38. Some of the results follow.

Biological target: Stb4 (UniProt P50104)
Assay: PBM E-score (8-mer binding enrichment) (E-score (-0.5 to 0.5)); higher = stronger / more preferred TF binding; most listed sequences are background and not binding sites
Settings: protein concentration: 200 nM; construct: GST-DNA-binding domain
Procedure, shortened: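 Yeast transcription factors carrying a GST tag, as full-length proteins or DNA-binding domains, were produced by PURExpress in vitro transcription/translation. About 100-200 nM protein was applied to universal all-10-mer Agilent arrays, double-stranded by primer extension on fresh or once-stripped slides. Bound protein was detected with fluorescent anti-GST, and scans were normalised with masliner. The Universal PBM Analysis Suite gave each ungapped eight-base word, pooled with its reverse complement, an E-score, a modified Wilcoxon-Mann-Whitney statistic.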

| Sequence | PBM E-score |
| --- | --- |
| ATCCCCGC | 0.248 |
| AAGCCAGG | -0.215 |
| GATTATAC | 0.155 |
| ATAGGTGA | -0.155 |
| CTACTCGC | -0.00316 |
| TGCTGCAA | -0.246 |
| CCGACCAG | 0.254 |
| CAGAGCAA | -0.0378 |
| CCGGAACC | 0.41 |
| CTGGTGCA | -0.279 |
| CATGACTC | -0.135 |
| GGCGTCCC | -0.0274 |
| ATAATCTA | 0.0816 |
| CGCCCTAA | -0.191 |
| CAGCCAGC | -0.218 |
| ATAAGACC | -0.03 |
| ACCGGCCT | 0.025 |
| CGCCGGAA | 0.392 |
| AACCTTGA | -0.0605 |
| GACACCAA | -0.00807 |
| CTGTCCCC | -0.191 |
| CTTTAATC | -0.117 |
| CAAGGGAA | -0.173 |
| GACTGTCA | -0.0239 |
| TATAGCAA | -0.0232 |

| Sequence | PBM E-score |
| --- | --- |
| CAGAAGTC | -0.174 |
| GTCTTAAA | -0.101 |
| ACCGCGCC | 0.0314 |
| CACGAAAG | -0.148 |
| AGTGAACC | 0.11 |
| CATACGTC | -0.0287 |
| AACATAAC | 0.0406 |
| CCGATTAG | 0.299 |
| CCATTTAG | -0.154 |
| ATCCTGGG | -0.093 |
| TCTTGTAA | -0.0477 |
| CACCTGGA | -0.254 |
| CTCGGTTA | 0.44 |
| ACGGAAGG | 0.313 |
| GGTCTGAC | -0.002 |
| CTGTCCAA | -0.166 |
| CGAAAGTA | 0.134 |
| CTTACTTC | 0.0292 |
| CCACCCTA | -0.112 |
| GGGCGCCA | -0.101 |
| GACTCGGA | 0.451 |
| CCATTTCG | 0.159 |
| CCTAGAGA | -0.275 |
| CCTACGAG | -0.131 |
| TCGGCGCA | 0.262 |

| Sequence | PBM E-score |
| --- | --- |
| GCAGCTGC | 0.252 |
| CTAGTGTA | -0.296 |
| AAAAACCC | 0.0986 |
| GATGCTCC | 0.145 |
| CTATCAAA | -0.0734 |
| TCAAGCCA | -0.0789 |
| CTCCGGGC | 0.131 |
| CCCCGAGC | 0.371 |
| AGATGCTG | -0.18 |
| GAAAGGTA | -0.00797 |
| GCGTGCCC | -0.0774 |
| CTCAAAAA | 0.00307 |
| AAACTAGG | -0.0954 |
| GTTGAACA | -0.0395 |
| GGTCCCCA | -0.0796 |
| TAAGAAAA | 0.0397 |
| CGTTCCAA | -0.0817 |
| CCACAAAC | 0.121 |
| GCCCGTAC | -0.0102 |
| AGCCCTCA | -0.0656 |
| GTTTCATA | 0.00836 |
| CGCAACGA | 0.011 |
| ATTTCAGA | -0.192 |
| AACTTCGG | 0.408 |
| CAGATGCG | -0.0769 |

| Sequence | PBM E-score |
| --- | --- |
| TTCGGCAA | 0.454 |
| ACTGGTAT | -0.159 |
| ACTCGACA | 0.0107 |
| CTTTATAA | -0.203 |
| CTACGATC | 0.0347 |
| ACAATTGC | 0.0137 |
| ACATTTAC | -0.145 |
| CGGCGTAG | -0.126 |
| ACCGGGTC | 0.187 |
| CTAAAGGC | -0.255 |
| GGGCATAC | 0.124 |
| CGTTTTTA | -0.0102 |
| CCTAGTGA | -0.188 |
| ATTCAGAC | -0.2 |
| CTCTGTCA | -0.211 |
| GGTCTGCA | 0.0252 |
| CGCTACGC | -0.0382 |
| ACGCTCAT | -0.276 |
| ATTTCGGG | 0.39 |
| AAAGGGAC | -0.154 |
| GGATGAAA | 0.165 |
| CTTCTAGC | -0.135 |
| CATGGAAC | -0.133 |
| CTCAAGAA | -0.116 |
| CCACTGCC | -0.0125 |

| Sequence | PBM E-score |
| --- | --- |
| AACACCAT | -0.049 |
| ACAAAAAT | -0.082 |
| AGAAGTGA | -0.136 |
| ATCTTAGC | -0.119 |
| CGGCGTAC | 0.149 |
| ATAACGCG | 0.0342 |
| AACGCAAA | -0.0857 |
| GCATTAAA | -0.189 |
| CCGAAGGC | 0.336 |
| AGATGGCC | 0.0103 |
| GATAGCGC | 0.0623 |
| ACTACTCG | 0.148 |
| AGAACCAT | -0.159 |
| GATCTGCA | 0.0238 |
| TAATTTAA | 0.148 |
| CATAGTCC | -0.139 |
| TCTTCTAA | -0.123 |
| ACGCAAGC | -0.129 |
| ATGATCAC | -0.0197 |
| ACGCCGCT | -0.0109 |
| CACCGTGA | -0.0349 |
| AAACCTAC | 0.042 |
| ACCCGCAG | 0.246 |
| AACATATT | -0.0423 |
| GGTCATTA | -0.0634 |

| Sequence | PBM E-score |
| --- | --- |
| AAGCCGCC | -0.0244 |
| AGAGTACC | -0.0325 |
| ACTAAGGG | -0.159 |
| AATACCTC | -0.03 |
| CTTCTCTA | -0.123 |
| AGCAGTTA | -0.175 |
| ATTTAGGG | 0.0757 |
| AGGATACT | -0.145 |
| ACGCATTA | -0.0608 |
| ACCAGCAT | -0.183 |
| AGAATAGA | -0.127 |
| ACGGAAGT | 0.362 |
| CGGATGTC | 0.426 |
| CCGTCACC | 0.155 |
| ACATCAGG | -0.177 |
| AACGTTCT | -0.0762 |
| ATGCCATA | -0.315 |
| AGAGGGCT | -0.287 |
| CACTATCC | 0.219 |
| CCGATGGC | 0.345 |
| AAAAAAGC | -0.178 |
| GATCGGCA | 0.349 |
| CAATTCTG | -0.147 |
| TGCTAAAA | -0.205 |
| CGCGACCC | 0.00864 |

| Sequence | PBM E-score |
| --- | --- |
| TCGACAGA | -0.169 |
| AATGGTCA | -0.124 |
| GCTGAATA | -0.243 |
| ATTGTTTG | -0.152 |
| TCAGTTCA | -0.146 |
| AAGGTAAC | -0.102 |
| ACTTGCAA | -0.0701 |
| ATGGGCAA | -0.022 |
| TGGGCACA | -0.164 |
| GTGTGAAC | 0.0138 |
| AACCCTGT | -0.091 |
| GATTGCTA | -0.122 |
| AGCCCTTG | -0.148 |
| TAGATCGA | -0.227 |
| GGGAGAAC | 0.0243 |
| CATTTGCG | 0.0241 |
| AATACTCT | -0.0803 |
| ATCCCTCA | -0.102 |
| CTAGCCAA | -0.0164 |
| AGTGCGAA | -0.0951 |
| CGTACCCA | -0.0712 |
| AGAATCTC | 0.00656 |
| TACGTTAA | -0.173 |
| ATTACGGC | 0.0709 |
| GTTGGAAA | 0.0285 |

| Sequence | PBM E-score |
| --- | --- |
| GCTCATTA | 0.0211 |
| ATAATTTA | 0.155 |
| ACGTCCAG | -0.0996 |
| AGAAGACT | -0.237 |
| ACTGCAGG | -0.286 |
| GGGTTCCA | -0.0875 |
| GTGCTATA | -0.139 |
| CTTCAAGC | -0.303 |
| GAGCCCTC | -0.163 |
| CAGAGTTA | -0.0469 |
| ACGATTGA | -0.0991 |
| CCACCCGA | 0.379 |
| CGACCGTA | 0.0196 |
| CCGGCCCG | 0.392 |
| GGTATACA | 0.0214 |
| ATAGGAAC | -0.12 |
| ATACCTTG | -0.0599 |
| AAACAGAG | -0.0864 |
| AGGCATAT | -0.193 |
| CGACCTTA | -0.00111 |
| AAGTTCTA | 0.0321 |
| AATAGGTA | -0.152 |
| TTATTGAA | -0.272 |
| CGGTGGCA | -0.0748 |
| AAAACCAT | -0.16 |

| Sequence | PBM E-score |
| --- | --- |
| AGATGTGC | -0.0387 |
| AGCACCAG | -0.269 |
| TAACGAGA | -0.139 |
| GCACCACA | -0.0162 |
| CCGCCTCC | 0.133 |
| CCCATGGA | -0.247 |
| CATTGAAA | -0.0319 |
| AGCTGTAC | -0.0586 |
| ATTCATGG | -0.228 |
| GCCGCTAA | 0.0904 |
| CGCCAAGA | -0.172 |
| ATACATGA | -0.212 |
| CAATTCTA | -0.196 |
| ACCTGCAA | -0.281 |
| ACCTAGGA | -0.0137 |
| GCCGGCAA | 0.32 |
| CTATTGTA | -0.0755 |
| AAAGGGAG | -0.189 |
| CGCTTGTA | 0.134 |
